Source: paper PMC4336329 (PLoS ONE, 2015)
Hit rate of the full screen: of about 310,000 compounds, about 2,200 (0.71%) showed an effect of 50% or more. Effects have a minus sign here. Some of the results follow. Where a SMILES comes first, the peptide text is derived from it. The star is where a group is joined. Tos = Cc1ccc(S(=O)(=O)*)cc1

target: human ether-à-go-go-related gene (hERG) potassium channel (human, UniProt Q12809); experiment: primary screen, population patch clamp on CHO cells stably expressing hERG
Sequence (Q12809 whole entry, looked up): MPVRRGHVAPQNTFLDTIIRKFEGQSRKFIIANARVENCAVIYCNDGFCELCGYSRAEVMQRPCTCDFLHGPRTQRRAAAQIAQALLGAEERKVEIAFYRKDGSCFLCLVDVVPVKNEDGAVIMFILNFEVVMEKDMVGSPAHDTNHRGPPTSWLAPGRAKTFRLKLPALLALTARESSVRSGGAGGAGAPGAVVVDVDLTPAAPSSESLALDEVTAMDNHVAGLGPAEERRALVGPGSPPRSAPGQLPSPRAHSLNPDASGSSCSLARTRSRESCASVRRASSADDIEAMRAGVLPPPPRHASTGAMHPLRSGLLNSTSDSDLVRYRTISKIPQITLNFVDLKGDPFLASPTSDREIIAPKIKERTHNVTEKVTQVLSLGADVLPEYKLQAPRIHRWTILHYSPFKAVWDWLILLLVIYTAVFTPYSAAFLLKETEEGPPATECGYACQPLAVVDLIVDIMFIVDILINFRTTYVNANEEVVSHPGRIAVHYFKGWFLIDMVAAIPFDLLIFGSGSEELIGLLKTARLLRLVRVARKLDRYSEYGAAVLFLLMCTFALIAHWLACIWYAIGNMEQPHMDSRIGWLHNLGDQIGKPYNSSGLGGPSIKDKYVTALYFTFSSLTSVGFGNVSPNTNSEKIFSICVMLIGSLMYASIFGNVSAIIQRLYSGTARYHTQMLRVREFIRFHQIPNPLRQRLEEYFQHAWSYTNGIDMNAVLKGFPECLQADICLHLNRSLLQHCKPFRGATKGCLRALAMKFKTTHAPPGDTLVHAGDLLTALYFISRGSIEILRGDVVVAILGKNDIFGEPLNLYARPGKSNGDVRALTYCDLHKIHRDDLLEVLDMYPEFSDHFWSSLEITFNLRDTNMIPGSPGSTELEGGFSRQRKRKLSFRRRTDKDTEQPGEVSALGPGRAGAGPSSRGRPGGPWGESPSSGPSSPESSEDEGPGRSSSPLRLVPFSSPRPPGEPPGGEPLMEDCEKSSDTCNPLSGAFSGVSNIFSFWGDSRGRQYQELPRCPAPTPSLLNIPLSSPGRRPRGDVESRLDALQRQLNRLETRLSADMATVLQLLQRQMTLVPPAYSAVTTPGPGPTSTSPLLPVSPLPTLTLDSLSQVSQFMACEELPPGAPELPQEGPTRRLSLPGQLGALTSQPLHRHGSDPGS

Compound	hERG current change (%, negative = inhibition) at 1uM
O=S(=O)(NCc1ccco1)c1cnc(Cl)c(Cl)c1	-1.15%
COc1ccccc1NC(=O)/C=C/c1cc([N+](=O)[O-])ccc1OC(F)F	5.21%
CC(C)C1Nc2ccc(C(=O)NCc3ccco3)cc2NC1=O (centres unmarked)	11.7%
Cc1c(NC(=S)NC(=O)c2cccc(Cl)c2)c(=O)n(-c2ccccc2)n1C	15.8%
COCCCn1c(SCC(=O)Nc2ccc(C(C)=O)cc2)nc2ccccc2c1=O	-10%
COc1cccc(NC(=O)CN(c2cccc(OC)c2)S(C)(=O)=O)c1	4.73%
O=C1C=C(NC2CC2)C2(CCCCC2)O1	7.87%
O=C1c2ccccc2C(=O)N1Cc1nn2c(-c3ccc(Cl)cc3)nnc2s1	7.09%
Cc1ccc(S(=O)(=O)N[C@@H](CO)C(=O)N[C@@H](Cc2ccc(O)cc2)C(=O)O)cc1 (Tos-Ser-Tyr-OH)	16.7%
COc1cc(-c2nnc(-c3ccccc3)o2)cc(OC)c1OC	1.5%
COc1cccc(NS(=O)(=O)CC23CCC(CC2=O)C3(C)C)c1 (centres unmarked)	28.2%
CC(C)c1onc(C(=O)N2CCN(C(c3ccccc3)c3ccccc3)CC2)c1[N+](=O)[O-]	12.4%
O=C(c1ccc(N2CCCC2)c([N+](=O)[O-])c1)N1CCN(c2ccccn2)CC1	7.3%
Cc1nc(S(=O)(=O)c2ccc(Cl)cc2)nc2c1CCC2	0.296%
CN(Cc1ccccc1Br)C(=O)CSc1nnnn1C1CC1	2.55%
CCOC(=O)CSC1=C(C#N)C(c2ccc(C)cc2)C2=C(CCCC2=O)N1 (centres unmarked)	7.86%
COc1ccccc1CNn1c(-c2cccc(C)c2)nc2ccccc2c1=O	5.72%
Cc1cc(NC(=O)COc2ccc3ccccc3c2)no1	19.6%
CC1(C)CC(=O)C=C(NCc2cccs2)C1	7.23%

Compound	hERG current change (%, negative = inhibition) at 1uM
Cc1cc(NC(=O)c2ccccc2F)cc(C)c1OCC(=O)N1CCOCC1	5.54%
CCOC(=O)N1CCC(NC(=S)Nc2ccc3nc(N4CCN(CC)CC4)cc(C)c3c2)CC1	20.6%
CC(=O)c1c(C)[nH]c(C(=O)OCCOc2ccccc2)c1C	-11.3%
CCOC(=O)Cn1c(S(=O)(=O)Cc2ccc(Cl)cc2)nc(-c2ccccc2)c1-c1ccccc1	6.08%
COc1ccccc1NC(=O)COc1ccc2ccccc2c1	7.23%
COc1ccc(NC(=O)NCc2ccncc2)c(OC)c1	3.9%
COc1cc2cc(CCOC(=O)CCCC(=O)O)oc(=O)c2cc1OC	14.1%
CCn1nc(C(=O)OCC(=O)N2CC(=O)Nc3ccccc32)c2ccccc2c1=O	10.2%
COC(=O)c1ccc(NS(=O)(=O)N(C)C)cc1	2.85%
Cc1ccc(-n2cnc3cc(NCc4cccs4)ccc32)cc1	3.57%
O=C(CN1CCN(c2ccccc2F)CC1)Nc1nnc(C(F)(F)F)s1	6.81%
O=C(Nc1ccccc1)C1=C[C@H](c2ccc(C(F)(F)F)cc2)C[C@H](OCCCCO)O1	8.94%
CC(C)Cc1nnc(NC(=O)CSc2ncn[nH]2)s1	9.72%
Cc1cc(=O)oc2cc(OC(C)C(=O)Nc3ccc(C(N)=O)cc3)ccc12 (centres unmarked)	11.7%
COC(=O)Cc1csc(N)[nH+]1.[Cl-]	20.5%
CCn1c(CNC(=O)c2cccs2)n[nH]c1=S	6.94%
CCOC(=O)C1(Cc2cccc(Cl)c2)CCCN(C(=O)c2cn[nH]c2)C1 (centres unmarked)	6.11%
O=C(c1ccccc1)C1C(=O)c2ccccc2C1=O	7.46%
COC(=O)c1sc(-c2ccc(Cl)cc2)cc1NC(=O)COCC(=O)O	9.66%

Compound	hERG current change (%, negative = inhibition) at 1uM
O=C(CSc1nnnn1-c1ccccc1)N1N=CCC1c1ccccc1 (centres unmarked)	-1.08%
COc1ccc2c(c1)CCc1c(C(=O)N3CCc4ccccc4C3)noc1-2	0.367%
COC(=O)C1=C(c2ccc(-c3ccccc3)c(F)c2)C[C@@H]2CC[C@H]1N2C(=O)NCCNC(C)=O	9.6%
O=C(C1CCC1)N1CCc2cc(S(=O)(=O)NCc3ccco3)ccc21	7.44%
O=S(=O)(NC1=NCCC1)c1cccc(NS(=O)(=O)c2ccc(F)c(Cl)c2)c1	3.53%
Cc1cccc(NC(=O)Cn2cnc3sc(C)c(S(=O)(=O)N4CCC(C)CC4)c3c2=O)n1	4.71%
Cc1ccsc1C(=O)C1CCCN(Cc2ccn[nH]2)C1 (centres unmarked)	9.05%
CCOc1ccc(NS(=O)(=O)c2ccc(C(=O)NCCN3CCOCC3)cc2)cc1	-0.0798%
Cc1ccc(S(=O)(=O)Nc2ccc(N3CCN(C)CC3)nc2)cc1	6.01%
CC1(C)C(=O)C=C[C@]2(C)[C@H]3CC[C@@]4(C)[C@H](c5ccoc5)OC(=O)[C@H]5O[C@]54[C@]3(C)[C@H](O)C[C@@H]12	20.5%
O=C(NCC1COc2ccccc2O1)c1cccc(S(=O)(=O)NCc2ccccc2)c1 (centres unmarked)	7.26%
Cc1cc(C(=O)Nc2nnc(C3CCCCC3)s2)no1	-9.16%
COc1ccc(C(C(=O)NCCC(C)C)N(CCO)C(=O)c2snc(C(N)=O)c2N)cc1OC (centres unmarked)	10.6%
CCC(C)[C@H](NC(=O)NCc1ccco1)C(=O)O (some centres unmarked)	20%
Cc1cc(C)n2nc(SCC(=O)N/N=C/c3ccccn3)nc2n1	7.69%
Cc1cc([N+](=O)[O-])nn1CC(=O)NCCCn1ccnc1	5.44%
S=c1[nH]nc(-c2cccnc2)n1/N=C/C=C/c1ccccc1	16.3%
Clc1ccc(-c2cc3ccccc3nc2N2CCOCC2)cc1	14.5%
